{
  "source": "ChEMBL document CHEMBL4888484",
  "about": "“Replenishing the malaria drug discovery pipeline: Screening and hit evaluation of the MMV Hit Generation Library 1 (HGL1) against asexual blood stage Plasmodium falciparum ,using a nano luciferase reporter read-out” (2022)",
  "note": "In all, about 150,000 compounds went through this assay and about 540 (0.36%) showed an effect of 50% or more. The list shows a part of the results.",
  "data": [
    {"tested_on": "Plasmodium falciparum", "test": "Primary screen in NF54 nanoGlo assay, in single point, at 2uM, 72h; a lower Z score goes with more inhibition", "format": "functional, Erythrocyte", "settings": "timepoint 72 hour", "units": {"% Inhibition": "%"}, "values": [
      {"smiles": "CC(C)n1c(=O)oc2cc(-c3noc(-c4nn(C)c5ccccc45)n3)ccc21", "% Inhibition": -30, "Z score": 2.91},
      {"smiles": "COCCn1cc(C(=O)N[C@H]2C[C@@](CO)(c3ccccc3)C2)nn1", "% Inhibition": 1, "Z score": -0.11},
      {"smiles": "O=C(Cc1cccc(Cl)c1)N1C[C@@H]2CC[C@H]1CN(Cc1cscn1)C2", "% Inhibition": -11, "Z score": 1.11},
      {"smiles": "C[C@@H](c1nnc(-c2ccccc2F)s1)N1CCC(c2c[nH]c3ccccc23)CC1", "% Inhibition": 0, "Z score": -0.01},
      {"smiles": "CC(C)[C@H](NC(=O)COCC1CC1)c1ccc2[nH]c(=O)oc2c1", "% Inhibition": -1, "Z score": 0.17},
      {"smiles": "Cc1cc(C)c2[nH]c(C)c(CCN3CC[C@H](O)C3)c2c1", "% Inhibition": -18, "Z score": 2.77},
      {"smiles": "C[C@@H](Cn1cccn1)C(=O)NCCc1c[nH]cn1", "% Inhibition": -8, "Z score": 0.84},
      {"smiles": "CC[C@H]1C[N@@]2CC[C@H]1C[C@@H]2COC(=O)Nc1ccccc1", "% Inhibition": 45, "Z score": -5.09},
      {"smiles": "CN1C(=O)N(C)C(=O)C(Cc2ccccn2)(Cc2ccccn2)C1=O", "% Inhibition": 6, "Z score": -0.93},
      {"smiles": "CC(C)(N)Cc1ccc(Br)cc1", "% Inhibition": -2, "Z score": 0.34},
      {"smiles": "Cc1nc(N)nc(N2CCC3(CCN(C)C3)CC2)c1Cl", "% Inhibition": 5, "Z score": -0.68},
      {"smiles": "N#Cc1cccnc1NCC12CCCN(CCC1)C2", "% Inhibition": -11, "Z score": 1.41},
      {"smiles": "CC(C)COC(=O)C[C@@H](CN)c1ccccc1", "% Inhibition": -7, "Z score": 1.33},
      {"smiles": "O=C(Cc1csc(-c2ccccc2)n1)N1CCN2CCC1C2", "note": "(stereo not given)", "% Inhibition": -1, "Z score": 0.22},
      {"smiles": "Cc1cc(Br)ccc1CNC(=O)c1cn(C2CCNCC2)nn1", "% Inhibition": -8, "Z score": 1.14},
      {"smiles": "O=C1CO[C@H]2CN(Cc3ccco3)C[C@H]2N1Cc1cccnc1", "% Inhibition": 32, "Z score": -3.56},
      {"smiles": "O=C(c1cn(Cc2ccc(Cl)cc2)nn1)N(Cc1ccccc1)CC1CC1", "% Inhibition": -4, "Z score": 0.77},
      {"smiles": "C1CCCC(NCCCOC2CCCC2)CC1", "% Inhibition": -13, "Z score": 2.38},
      {"smiles": "O=C(Nc1ccc(=O)n2c1[C@@H]1C[C@@H](CN(S(=O)(=O)c3ccccc3)C1)C2)c1cncnc1", "% Inhibition": -3, "Z score": 0.66},
      {"smiles": "O=c1ccc(C2CCCCC2)c2n1C[C@H]1C[C@@H]2CN(S(=O)(=O)c2ccccc2)C1", "% Inhibition": -6, "Z score": 0.89},
      {"smiles": "CN(CC(=O)N1CCCCCC1)S(=O)(=O)c1ccc2[nH]c(=O)oc2c1", "% Inhibition": -3, "Z score": 0.45},
      {"smiles": "CCN1CCC2CCC(C1)N2C(=O)Nc1ccnc(OC)n1", "note": "(stereo not given)", "% Inhibition": -3, "Z score": 0.49},
      {"smiles": "c1cc2oc(CN3CC4(CCCOC4)C3)cc2cn1", "% Inhibition": -2, "Z score": 0.17},
      {"smiles": "CCOCc1nc(-c2c(C)ncc3c2CCN(c2ccnc(N)n2)C3)no1", "% Inhibition": -3, "Z score": 0.41},
      {"smiles": "O=c1c2ccccc2nc(Cc2ccccc2)n1-c1c(Cl)cccc1Cl", "% Inhibition": -4, "Z score": 0.57},
      {"smiles": "CCC(=O)NCc1ccccc1C1=CCNCC1", "% Inhibition": 3, "Z score": -0.36},
      {"smiles": "NCCc1cc(Br)ccc1F", "% Inhibition": -3, "Z score": 0.33},
      {"smiles": "C1=CC2(CCNCC2)Oc2ccccc21", "% Inhibition": 0, "Z score": 0.06},
      {"smiles": "C[C@@H]1CN(C2CCOCC2)CCN1C(=O)Cc1cc(F)ccc1F", "% Inhibition": -7, "Z score": 0.88},
      {"smiles": "CC(F)(F)CN1CCN(C(=O)Cc2ccco2)CC1", "% Inhibition": -4, "Z score": 0.6},
      {"smiles": "C[C@@](CO)(Cc1ccccc1F)NCc1nc(C(F)F)no1", "% Inhibition": -3, "Z score": 0.48},
      {"smiles": "C[C@@H](Cc1ccsc1)N(C)Cc1cnc2ccc(C#N)cn12", "% Inhibition": -10, "Z score": 1.9},
      {"smiles": "COc1ccccc1[C@H]1CN(c2noc(C)n2)[C@@H]2C3CCN(CC3)[C@H]12", "% Inhibition": -3, "Z score": 0.33},
      {"smiles": "COC(=O)c1[nH]c(C)cc1NS(=O)(=O)c1ccc(S(=O)(=O)F)cc1", "% Inhibition": 0, "Z score": -0.06},
      {"smiles": "c1cc(N2CC[C@@]3(CCCNC3)C2)c2sccc2n1", "% Inhibition": 98, "Z score": -16.03},
      {"smiles": "Cc1ncccc1CNC(=O)C1NCCC2CCCCC21", "note": "(stereo not given)", "% Inhibition": 1, "Z score": -0.1},
      {"smiles": "CN1C[C@@]2(Cc3c1ccc1ccccc31)C(=O)NC(=O)N(c1ccc(F)cc1)C2=O", "% Inhibition": 27, "Z score": -3.04},
      {"smiles": "O=C(c1ccc(O)cc1)N1C[C@@H](c2cccc(F)c2F)[C@@H]2[C@H]1C1CCN2CC1", "% Inhibition": 2, "Z score": -0.38},
      {"smiles": "Fc1cnc(N2C[C@@H](c3ccccc3)[C@@H]3[C@H]2C2CCN3CC2)nc1", "% Inhibition": -13, "Z score": 2.17},
      {"smiles": "COc1ccccc1C[C@H](C)N(C)C(=O)CN1C(=O)OC(C)(C)C1=O", "% Inhibition": -18, "Z score": 1.82},
      {"smiles": "c1ccc2c(c1)CCC[C@@]21CCCNC1", "% Inhibition": -10, "Z score": 1.08},
      {"smiles": "CCCn1nc(C(=O)N2CCC(Nc3ccccc3)CC2)ccc1=O", "% Inhibition": -1, "Z score": 0.07},
      {"smiles": "Cc1cccc(CN2CCC[C@H](C(=O)c3ccc(Cl)cc3)C2)n1", "% Inhibition": -12, "Z score": 1.61},
      {"smiles": "Cc1ccc(NC(=O)Nc2ccc(C)n(CC(=O)N3CCC4(CC3)OCCO4)c2=O)cc1", "% Inhibition": 12, "Z score": -1.67},
      {"smiles": "Cc1ccc([C@H](C)n2ccnc2-c2coc(C)n2)cn1", "% Inhibition": -3, "Z score": 0.5},
      {"smiles": "COc1ccc(N2C[C@H]2c2ccncc2)cc1", "% Inhibition": 45, "Z score": -5.81},
      {"smiles": "Cc1ccc(S(=O)(=O)N(CCS(=O)(=O)F)CCS(=O)(=O)F)c(C)c1", "% Inhibition": -20, "Z score": 3.28},
      {"smiles": "O=C(CN1CCCCCC1)N1CCC2(CC1)OCCO2", "% Inhibition": -9, "Z score": 1.24},
      {"smiles": "COc1ccc(Cc2nc(-c3ccc4c(c3)oc(=O)n4C)no2)cc1Cl", "% Inhibition": 2, "Z score": -0.21},
      {"smiles": "COc1ccccc1NC(=O)N1C[C@H]2COc3ccccc3C[C@@]2(C(=O)O)C1", "% Inhibition": -4, "Z score": 0.47},
      {"smiles": "O[C@@H]1C[C@H]2CN(CCCc3cccnc3)Cc3cccnc3N2C1", "% Inhibition": 3, "Z score": -0.39},
      {"smiles": "CCc1ccc(C(=O)Nc2cnc3c(c2)CNCC3)o1", "% Inhibition": -13, "Z score": 1.34},
      {"smiles": "Cc1ncccc1CN1C[C@H]2CCC[C@@H](C2)C1", "% Inhibition": -4, "Z score": 0.87},
      {"smiles": "CCCS(=O)(=O)NC[C@H]1C[C@@H]2CCN1C[C@@H]2c1cc(C(CC)CC)nc(-c2ccncc2)n1", "% Inhibition": 35, "Z score": -3.34},
      {"smiles": "Cc1nnc(CN2C(C)CC3CCCCC32)n1C", "note": "(stereo not given)", "% Inhibition": -5, "Z score": 0.51}
    ]}
  ]
}
